Structures are written as SMILES. Hit rate of the full screen: of about 310,000 compounds, about 2,200 (0.71%) showed an effect of 50% or more. Effects have a minus sign here. This is one part of the list.

The target of this assay is human ether-à-go-go-related gene (hERG) potassium channel (human, UniProt Q12809). As to the kind of experiment: primary screen, population patch clamp on CHO cells stably expressing hERG.
Chain of human ether-à-go-go-related gene (hERG) potassium channel (Q12809 whole entry, looked up): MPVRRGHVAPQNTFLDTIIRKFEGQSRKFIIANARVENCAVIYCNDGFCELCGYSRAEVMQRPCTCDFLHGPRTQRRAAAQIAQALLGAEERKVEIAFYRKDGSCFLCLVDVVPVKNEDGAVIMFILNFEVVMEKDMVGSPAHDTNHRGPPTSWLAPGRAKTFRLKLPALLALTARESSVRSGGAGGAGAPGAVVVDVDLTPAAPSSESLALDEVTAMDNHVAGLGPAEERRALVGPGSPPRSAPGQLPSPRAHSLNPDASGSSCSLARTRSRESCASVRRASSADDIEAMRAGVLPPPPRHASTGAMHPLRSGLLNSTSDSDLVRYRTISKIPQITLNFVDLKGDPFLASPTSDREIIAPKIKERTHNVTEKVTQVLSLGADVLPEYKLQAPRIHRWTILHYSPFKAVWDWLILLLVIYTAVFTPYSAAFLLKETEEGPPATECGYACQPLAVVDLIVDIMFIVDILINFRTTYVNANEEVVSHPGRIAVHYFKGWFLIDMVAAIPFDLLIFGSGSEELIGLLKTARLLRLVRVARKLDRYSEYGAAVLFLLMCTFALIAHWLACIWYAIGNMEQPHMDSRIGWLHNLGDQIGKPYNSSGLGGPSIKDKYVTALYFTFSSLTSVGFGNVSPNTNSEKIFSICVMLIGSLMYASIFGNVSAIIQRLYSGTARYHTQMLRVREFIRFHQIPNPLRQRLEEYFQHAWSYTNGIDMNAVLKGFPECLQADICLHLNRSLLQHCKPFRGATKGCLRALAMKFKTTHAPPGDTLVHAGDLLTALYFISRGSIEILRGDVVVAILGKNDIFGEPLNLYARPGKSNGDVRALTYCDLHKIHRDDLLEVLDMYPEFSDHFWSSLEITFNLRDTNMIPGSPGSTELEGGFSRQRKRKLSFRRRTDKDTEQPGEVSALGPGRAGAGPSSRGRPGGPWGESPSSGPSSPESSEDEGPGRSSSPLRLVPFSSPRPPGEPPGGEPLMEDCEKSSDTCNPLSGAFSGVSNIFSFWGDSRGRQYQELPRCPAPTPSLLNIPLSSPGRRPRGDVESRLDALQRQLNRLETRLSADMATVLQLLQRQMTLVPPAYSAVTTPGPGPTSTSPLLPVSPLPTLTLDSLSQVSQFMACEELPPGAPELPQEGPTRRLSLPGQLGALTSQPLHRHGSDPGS
As to `CNc1nc(N/N=C/c2ccc([N+](=O)[O-])cc2)nc(Nc2ccccc2)n1.Cl`, the “hERG current change (%, negative = inhibition) at 1uM” value came out at 10.5%.

As for `C[n+]1cn(CC(O)COCc2ccccc2)c2ccccc21.[I-]` (stereo not shown), the “hERG current change (%, negative = inhibition) at 1uM” value worked out at 15.2%.

Regarding `O=C(CCN1C(=O)C2C3CC(C(Br)C3Br)C2C1=O)OCC(=O)c1ccccc1` (stereo not shown), the “hERG current change (%, negative = inhibition) at 1uM” value amounted to 2.76%.

In the case of `Cc1c(CC(=O)NCCCCCC(=O)O)c(=O)oc2c(C)c3oc4c(c3cc12)CCCC4`, the “hERG current change (%, negative = inhibition) at 1uM” value is 17.6%.

With `Cc1ccn2cc(CCNC(=O)Cc3cccs3)nc2c1`, the “hERG current change (%, negative = inhibition) at 1uM” value amounted to 5.14%.

As to `COc1ccc(C2CN(C)CC2C(=O)c2ccc(F)cc2)cc1Cl` (stereo not shown), the “hERG current change (%, negative = inhibition) at 1uM” value is listed as -28.2%.

In the case of `CC1CCN(C(=O)c2ccc(N3C(=O)C4CCC(C)CC4C3=O)cc2)CC1` (stereo not shown), the “hERG current change (%, negative = inhibition) at 1uM” value came to 7.55%.

Regarding `Cc1c(Cl)cnn1CC(=O)NC1C(=O)N2C(C(=O)O)=C(CSc3nnnn3C)CSC12` (stereo not shown), the “hERG current change (%, negative = inhibition) at 1uM” value was found to be 13.9%.

`COc1ccc(Cl)cc1NC(=O)CN(C)C(=O)Cn1cnc2c1c(=O)n(C)c(=O)n2C`: the “hERG current change (%, negative = inhibition) at 1uM” value was 4.09%.

As for `COc1ccccc1-c1cnn2c(NC3CCCC3)cc(C)nc12`, the “hERG current change (%, negative = inhibition) at 1uM” value is 18.8%.

`O=C(Nc1cc(S(=O)(=O)N2CCOCC2)ccc1N1CCOCC1)c1ccccc1F`: the “hERG current change (%, negative = inhibition) at 1uM” value was determined as 10.6%.

In the case of `CN(C)C=O.O=C(Nc1cccc(S(=O)(=O)NC2=NCCCCC2)c1)c1cc(-c2ccco2)nc2ccccc12`, the “hERG current change (%, negative = inhibition) at 1uM” value came out at 19%.

Take `CC(C)C(C(=O)Nc1ccccc1F)N1C(=O)c2ccccc2C1=O` (stereo not shown): the “hERG current change (%, negative = inhibition) at 1uM” value is 10.9%.

For the compound `CCN(CC)CCN(C(=O)C1=COCCO1)c1nc2cc(C)cc(C)c2s1.Cl`, the “hERG current change (%, negative = inhibition) at 1uM” value was -36.7%.

For the compound `Cc1cc(S(=O)(=O)N2CCN(c3ccccc3C)CC2)ccc1F`, the “hERG current change (%, negative = inhibition) at 1uM” value stood at 7.86%.

In the case of `Cc1c(NC(=O)CN2CCCC(C)C2)ccc2nsnc12` (stereo not shown), the “hERG current change (%, negative = inhibition) at 1uM” value is recorded as 19.4%.

`Cn1c(=O)n(CC#N)c2ccccc21`: the “hERG current change (%, negative = inhibition) at 1uM” value was determined as 18%.

In the case of `C/C(=N\Nc1ncc(Cl)cc1Cl)c1ccc(C#N)cc1`, the “hERG current change (%, negative = inhibition) at 1uM” value was found to be 0.293%.

As to `CCOC(=O)c1c(S(=O)(=O)NCc2ccc(OC)cc2)c(C)n(C)c1C`, the “hERG current change (%, negative = inhibition) at 1uM” value was found to be 6.48%.

`CN(C)Cc1c(O)ccc2ccccc12`: the “hERG current change (%, negative = inhibition) at 1uM” value is 9.8%.

In the case of `COc1ccc2nc(NC(=O)NC3CCCCC3)sc2c1`, the “hERG current change (%, negative = inhibition) at 1uM” value was found to be 13.7%.

As for `Cn1c(SCC(=O)NC2CCCC2)nnc1-c1ccccn1`, the “hERG current change (%, negative = inhibition) at 1uM” value was 13.5%.

On to `O=C(O)c1ccc(CNC(=O)c2ccccc2NC(=O)c2ccc([N+](=O)[O-])cc2)cc1`, for which the “hERG current change (%, negative = inhibition) at 1uM” value is given as 15.8%.

Regarding `CCc1ccccc1NC(=O)C1CC(c2ccc(F)cc2)=NO1` (stereo not shown), the “hERG current change (%, negative = inhibition) at 1uM” value was 14%.

Turning to `COc1cc(C2/C(=C(\O)c3cc(C)ccc3C)C(=O)C(=O)N2CCN(C)C)ccc1O` (stereo not shown), the “hERG current change (%, negative = inhibition) at 1uM” value is -3.5%.

Turning to `N#CC1=C(N)NC(SCC(=O)Nc2ccccc2)=C(C#N)C12CCCC2`, the “hERG current change (%, negative = inhibition) at 1uM” value was 9.93%.

Regarding `COc1ccccc1NCCC(=O)OCC(=O)NC1CCCC(C)C1C` (stereo not shown), the “hERG current change (%, negative = inhibition) at 1uM” value is 10.9%.

On to `CCN=C1NN=C(c2cc(C)n(Cc3ccco3)c2C)CS1`, for which the “hERG current change (%, negative = inhibition) at 1uM” value is reported as 12.5%.

With `Cc1nc2ccccc2nc1N/N=C/c1ccc(O)cc1O`, the “hERG current change (%, negative = inhibition) at 1uM” value is reported as 6.03%.

On to `COC(=O)c1cc(C(C)=O)n2ccccc12`, for which the “hERG current change (%, negative = inhibition) at 1uM” value is -2.71%.

For `CCOC(=O)NC(c1ccccc1)C1CCCCC1=O` (stereo not shown), the “hERG current change (%, negative = inhibition) at 1uM” value was found to be 9.1%.

For `CC(NC(=O)C(c1ccccc1)c1ccccc1)C(=O)N1CCCCC1` (stereo not shown), the “hERG current change (%, negative = inhibition) at 1uM” value is listed as 3.85%.

As to `C[C@@H](C(O)c1ccccc1)N(C)C(=O)CCc1ccccc1` (stereo partly shown), the “hERG current change (%, negative = inhibition) at 1uM” value is listed as -0.658%.

Consider `COCCN(CCOC)C(=O)c1ccc(CSc2nc3ccccc3s2)cc1`, for which the “hERG current change (%, negative = inhibition) at 1uM” value amounted to 1.94%.

As to `O=C(NCCN1CCOCC1)c1ccc(-c2ccccc2)cc1`, the “hERG current change (%, negative = inhibition) at 1uM” value is on record as 1.65%.

With `Cc1cc2c(C)ccc(C)c2nc1SCC(=O)c1cccs1`, the “hERG current change (%, negative = inhibition) at 1uM” value stood at 19.6%.

Turning to `CCN(Cc1ccncc1)C(=O)C1CCN(S(=O)(=O)c2cccs2)CC1`, the “hERG current change (%, negative = inhibition) at 1uM” value is listed as 9.02%.

With `CCN(Cc1ccccc1)C(=O)c1cc(S(=O)(=O)N2CCOCC2)ccc1N1CCCC1`, the “hERG current change (%, negative = inhibition) at 1uM” value worked out at 3.38%.

On to `CCCCC1C2=C(CCCC2=O)OC2=C1C(=O)CCC2`, for which the “hERG current change (%, negative = inhibition) at 1uM” value is -1.95%.

On to `O=C(Nc1cccc(NC(=O)c2cccs2)c1)c1ccc(Br)o1`, for which the “hERG current change (%, negative = inhibition) at 1uM” value is recorded as 5.96%.

`CCOc1ccc(C(=O)Nc2cc(C)on2)cc1`: the “hERG current change (%, negative = inhibition) at 1uM” value worked out at 11.3%.

Turning to `CCC(C)c1ccc(NC(=O)Nc2cnccn2)cc1` (stereo not shown), the “hERG current change (%, negative = inhibition) at 1uM” value is on record as 7.59%.

For the compound `Cc1ccc(C(=O)N2CCC3(CC2)NCCc2[nH]cnc23)cc1C`, the “hERG current change (%, negative = inhibition) at 1uM” value was determined as 9%.

The values are drawn from paper PMC4336329 (PLoS ONE, 2015).
